# PMC4336329 (PLoS ONE, 2015)
# In all, about 310,000 compounds went through this assay and about 14,000 (4.5%) showed an effect of 50% or more. The effect is printed as a negative number. Some of the results follow.
# Target: human ether-à-go-go-related gene (hERG) potassium channel (human, UniProt Q12809)
# Experiment: primary screen, population patch clamp on CHO cells stably expressing hERG
# 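Further: peak tail current of the secondary pulse compared with the same well before compound.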
# Sequence of human ether-à-go-go-related gene (hERG) potassium channel (Q12809 whole entry, looked up): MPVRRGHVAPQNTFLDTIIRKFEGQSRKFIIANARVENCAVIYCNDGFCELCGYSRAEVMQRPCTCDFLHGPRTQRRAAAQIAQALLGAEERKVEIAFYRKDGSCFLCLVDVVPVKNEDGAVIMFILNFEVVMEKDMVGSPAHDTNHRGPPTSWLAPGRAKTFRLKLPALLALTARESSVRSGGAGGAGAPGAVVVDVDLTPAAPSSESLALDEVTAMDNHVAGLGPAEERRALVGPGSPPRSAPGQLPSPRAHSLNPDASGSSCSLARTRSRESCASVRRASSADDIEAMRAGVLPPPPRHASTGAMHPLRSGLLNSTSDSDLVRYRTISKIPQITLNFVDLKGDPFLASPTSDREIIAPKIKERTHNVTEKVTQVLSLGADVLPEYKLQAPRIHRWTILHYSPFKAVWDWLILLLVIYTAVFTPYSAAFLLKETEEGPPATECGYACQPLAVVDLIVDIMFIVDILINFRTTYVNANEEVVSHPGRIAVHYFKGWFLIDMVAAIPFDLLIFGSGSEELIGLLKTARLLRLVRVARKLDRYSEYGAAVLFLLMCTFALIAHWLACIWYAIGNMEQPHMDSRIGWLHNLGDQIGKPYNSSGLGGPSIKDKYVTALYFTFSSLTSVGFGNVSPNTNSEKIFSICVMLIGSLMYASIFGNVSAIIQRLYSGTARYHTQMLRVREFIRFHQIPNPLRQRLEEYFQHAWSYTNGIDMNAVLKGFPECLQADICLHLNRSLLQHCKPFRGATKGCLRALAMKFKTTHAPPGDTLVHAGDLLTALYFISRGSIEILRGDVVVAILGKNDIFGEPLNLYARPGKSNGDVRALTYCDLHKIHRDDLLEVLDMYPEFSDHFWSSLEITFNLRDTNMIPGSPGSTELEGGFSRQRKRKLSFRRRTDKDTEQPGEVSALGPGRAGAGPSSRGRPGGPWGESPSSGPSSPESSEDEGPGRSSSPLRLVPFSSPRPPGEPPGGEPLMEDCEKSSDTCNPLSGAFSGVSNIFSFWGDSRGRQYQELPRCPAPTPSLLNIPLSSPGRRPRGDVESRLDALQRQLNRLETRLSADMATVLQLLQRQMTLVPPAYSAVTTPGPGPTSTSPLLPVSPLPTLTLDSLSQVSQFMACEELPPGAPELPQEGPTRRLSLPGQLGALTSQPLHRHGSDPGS
row,SMILES,"hERG current change (%, negative = inhibition) at 10uM [%]"
1,COc1ccccc1C(=O)N1CCN(Cc2cn[nH]c2-c2ccc(F)cc2F)CC1,-6.87
2,CC12CCC(C(=O)NCc3ccc(Cl)cc3)(OC1=O)C2(C)C (stereo not drawn),-4.36
3,CN(Cc1ccccc1)C1(CNC(=O)CCC(F)(F)F)Cc2ccccc2C1,4.95
4,NC(=O)CSc1nnc(COc2ccccc2)n1N,6.84
5,CNC(=S)Nc1cc(OC)ccc1OC,2.43
6,O=C(NCCCN1CCCC1=O)C1CCN(S(=O)(=O)c2ccccc2)CC1,9.71
7,CCCCn1c(N)c(N(Cc2ccccc2OC)C(=O)COc2ccc(F)cc2Cl)c(=O)[nH]c1=O,16.1
8,CCOCCCN(C(=O)CCC(=O)Nc1cc(C)on1)C(C(=O)NC(C)(C)C)c1ccccc1Cl (stereo not drawn),11.2
9,COc1ccccc1CNC(=O)C(CCSC)NS(=O)(=O)c1ccc2c(c1)oc(=O)n2C (stereo not drawn),17
10,Cc1c(C(=O)O)oc2c1/C(=N\O)CCC2,29
11,Cc1cc(NC(=O)c2ccc(C#N)cc2)on1,3.29
12,CCN(CCn1cccn1)C(=O)CCc1nnc(C2(c3ccc(Cl)cc3)CCC2)o1,-2.95
13,CSCCC(NC(=O)/C(=C/c1ccco1)NC(=O)c1ccco1)C(=O)O (stereo not drawn),8.29
14,O=C(N1CCOCC1)N1CCN(S(=O)(=O)c2ccccc2)C1,-12.8
15,Cc1ccc(S(=O)(=O)N2CCC(C(=O)N/N=C/c3cccnc3)CC2)cc1,-46.9
16,O=[N+]([O-])c1cc(NCCO)c(N2CCCCCC2)c2nonc12,10.7
17,Cc1ccccc1NC(=O)C1CCCN(S(=O)(=O)c2ccc(-n3cnnn3)cc2)C1 (stereo not drawn),-22.4
18,O=C(CS(=O)(=O)c1c[nH]c2ccccc12)N1CCCCCC1,43.4
19,CC1CCCC(C)N1C(=O)COC(=O)CNC(=O)C12CC3CC(CC(C3)C1)C2 (stereo not drawn),-8.89
20,CSCC[C@H](NC(=O)CCCn1nnc2ccccc2c1=O)C(=O)O,0.823
21,N#Cc1c(Cl)nc2c(c1C#N)CCCC2,-4.05
22,Cc1cc(F)ccc1S(=O)(=O)NCC1CC2CCC1C2 (stereo not drawn),-18.6
23,O=C(c1cccs1)N1N=C(c2ccccc2)CC1c1ccccc1 (stereo not drawn),3.72

row,SMILES,"hERG current change (%, negative = inhibition) at 10uM [%]"
1,COc1cc(Nc2ccc(C(=O)O)cc2[N+](=O)[O-])cc(OC)c1,37.4
2,COc1cc(NS(=O)(=O)c2cccc3nsnc23)cc(OC)c1,0.833
3,CCCCN1C(=O)Nc2ccccc2S1=O (stereo not drawn),3.55
4,COC(=O)c1[nH]c2cc(OC)ccc2c1N=CN(C)C,-12.6
5,CC(=O)N(CCCN1CCOCC1)Cc1ccncc1.Cl,16.4
6,CNC(=O)CSc1nnc(CCc2ccccc2)n1-c1ccccc1,-13
7,O=C(CCS(=O)(=O)CCN1CCOCC1)NCNC(=O)CCS(=O)(=O)CCN1CCOCC1,8.25
8,CCOC(=O)C1=C(C)NC(=O)N(C(C)=O)C1c1ccc(Cl)cc1 (stereo not drawn),4.43
9,O=C(O)/C(=C\c1ccc2ccccc2c1)c1cccc2ccccc12,6.53
10,CN(CCC#N)C(=O)CSc1nnc(-c2ccco2)n1N,6.26
11,CC1CC(C)CN(CCCNC(=O)c2ccc3c(c2)NC(=O)CS3)C1 (stereo not drawn),3.68
12,CSc1ccccc1NC(=O)c1ccncc1,3.62
13,Oc1ccc2ccccc2c1C1Nc2cccc3cccc(c23)N1,-18.3
14,COc1cccc(CN2CC(C(=O)NCC3CCOCC3)CCC2=O)c1 (stereo not drawn),22.7
15,O=C(CNC(=O)c1ccc(Cl)cc1Cl)OCc1nnc(-c2ccccc2)o1,-8.74
16,CCC(=O)Nc1ccc(NC(=O)c2cccc3ccccc23)cc1,23.9
17,CCS(=O)(=O)N1Cc2ccccc2CC1C(=O)N(C)CC(=O)Nc1ccc(OC)cc1 (stereo not drawn),-12.9
18,C/C=C/c1ccc(OCC(=O)OCC2=C(C(=O)OCC)C(C)NC(=O)N2)c(OC)c1 (stereo not drawn),-7.22
19,O=C(O)c1cc(S(=O)(=O)N2CCCCC2)sc1Cl,17
20,C=CCn1c(SCC(=O)NNC(=S)Nc2ccccc2)nnc1-c1ccccc1,15.9
21,O=C(CCCNC(=O)/C(=C\c1ccccc1F)NC(=O)c1ccccc1)OCc1ccccc1,-9.13
22,CC(O)CNCCCOc1ccccc1OCc1ccccc1.O=C(O)C(=O)O (stereo not drawn),-36.7
